The campaign covered roughly 16,000 compounds. About 120 (0.75%) were called active. Roughly 4% stayed inconclusive and do not appear here. Calls follow the shape of the dose curve; as a rule, active = well fitted inhibition curve with a large enough effect; inconclusive = small, poorly fitted or top-dose-only effect; inactive = no such curve, though single readings can be large or run the other way. Some of the results follow.
Molecular target: Rap guanine nucleotide exchange factor 3 (Homo sapiens) (UniProt O95398)
Assay: Validation qHTS for antagonist of cAMP-regulated guanine nucleotide exchange factor 3 (EPAC1); also: nearly all actives have a fitted effect of over 75% in size
Conditions: EPAC1 Rap1B-BODIPY-GDP exchange, fluorescence; series mostly up to 150 µM; activity change, negative = inhibition: at the top concentration
Source text: Assay Provider (PI): Xiaodong Cheng Ph.D.
The University of Texas Medical Branch, […], TX
In multi-cellular eukaryotic organisms, the effects of cAMP are transduced by two ubiquitously-expressed intracellular cAMP receptors, the classic protein kinase A/cAMP-dependent protein kinase (PKA/cAPK) and the more recently discovered exchange protein directly activated by cAMP/cAMP-regulated guanine nucleotide exchange factor (EPAC/cAMP-GEF). Both PKA and EPAC are ubiquitously expressed in all tissues, and an increase in intracellular cAMP levels will lead to the activation of both PKA and EPAC. Therefore, careful dissections of the individual role and relative contribution of EPAC and PKA within the overall cAMP signaling in various model systems are critical for further elucidating the mechanism of cAMP signaling. To date no EPAC-specific antagonists and agonist, as well as isoform-specific agonists have been reported, and developing EPAC-specific pharmacological probes to determine the physiological functions that EPAC play in the overall cAMP-mediated signaling remains a major challenge within the research field. Furthermore, identified regulators of EPAC may lead to new mechanism-based therapeutic strategies specifically targeting the EPAC / cAMP-signaling components as EPAC has been implicated to play important roles in major human pathological conditions such as diabetes, heart disease, and cancer.
This qHTS will be used to screen the Molecular Libraries Small Molecule Repository (MLSMR) as a concentration-titration series using the NCGC unique quantitative screening (qHTS) platform to find activators for EPAC1. In addition, this assay will also be used as a counterscreen for the EPAC2 qHTS. This fluorescent based assay is developed and validated for EPAC1 that measures exchange using EPAC effector Rap1 complex with BODIPY-GDP, a GDP analog with a tethered fluorophores. Activators are identified by monitoring the change in fluorescence signal as the exchanged free BODIPY-GDP has a reduced fluorescence compared to Rap1-bound BODIPY-GDP. Increase in signal (activation) is the desired outcome for the EPAC1 agonist while no activity in this assay is desired for the EPAC2 agonist counterscreen.
[1] de Rooij, J., Zwartkruis, F. J., Verheijen, M. H., Cool, R. H., Nijman, S. M., Wittinghofer, A., and Bos, J.L. (1998) Nature 396, 474-477.
Briefly, three uL of reagents (100 nM EPAC1, 250 nM RAP1B-BODIPY-GDP, 50 uM GDP) were dispensed into a 1536-well Greiner black solid-bottom medium binding assay plate. Controls and test compounds (23 nL) were transferred to the plate via a Kalypsys pin tool equipped with a 1536-pin array. The plates were centrifuged at 1,000 rpm for 15 seconds followed by 5 minute incubation at room temperature. The assay plates were read at 5 minute intervals for 30 minutes in the ViewLux plate reader using 480nm excitation and 540nm emission filters. The results were normalized to the […] positive control ATA and DMSO.

UniProt O95398, sequence (O95398 whole entry, looked up): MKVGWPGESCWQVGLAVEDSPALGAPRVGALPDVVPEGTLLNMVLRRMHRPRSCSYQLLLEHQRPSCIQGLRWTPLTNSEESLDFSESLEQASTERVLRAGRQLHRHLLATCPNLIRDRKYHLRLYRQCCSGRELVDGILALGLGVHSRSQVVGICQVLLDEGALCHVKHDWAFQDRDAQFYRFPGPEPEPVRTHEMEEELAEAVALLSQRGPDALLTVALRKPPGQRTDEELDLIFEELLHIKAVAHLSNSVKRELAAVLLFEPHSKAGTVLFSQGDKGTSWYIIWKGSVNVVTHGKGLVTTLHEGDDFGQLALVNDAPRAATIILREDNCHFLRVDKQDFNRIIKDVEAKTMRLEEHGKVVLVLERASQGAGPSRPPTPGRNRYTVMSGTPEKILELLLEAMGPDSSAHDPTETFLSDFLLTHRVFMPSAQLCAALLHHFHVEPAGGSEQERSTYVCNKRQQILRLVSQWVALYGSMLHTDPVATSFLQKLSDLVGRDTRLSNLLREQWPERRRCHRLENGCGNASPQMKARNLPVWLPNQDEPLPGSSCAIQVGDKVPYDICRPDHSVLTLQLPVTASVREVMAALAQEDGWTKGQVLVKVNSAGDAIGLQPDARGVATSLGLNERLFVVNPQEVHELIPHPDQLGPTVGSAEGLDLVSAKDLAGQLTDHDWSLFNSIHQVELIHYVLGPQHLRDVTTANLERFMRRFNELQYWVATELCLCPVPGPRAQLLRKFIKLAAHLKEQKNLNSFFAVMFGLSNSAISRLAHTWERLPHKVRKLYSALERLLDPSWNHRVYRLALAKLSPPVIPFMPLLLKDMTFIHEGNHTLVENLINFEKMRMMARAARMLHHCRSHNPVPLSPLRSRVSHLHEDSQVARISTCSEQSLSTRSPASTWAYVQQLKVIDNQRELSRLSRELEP

Activity change, negative = inhibition, inactive:
COc1ccccc1C(=O)N[C@@H]1c2ccccc2C2(CCN(Cc3cccnc3)CC2)[C@H]1O 4.13%
CCCCCc1ccc(-c2cn(Cc3ccc4ccccc4c3)nn2)cc1 5.54%
CC(=O)Nc1cc(C(=O)N2CCSCC2)cc2ncn(CCc3ccccn3)c12 11.1%
Cc1ncc2c(c1CNC(=O)c1ccc3c(c1)OCO3)CCN(C(=O)c1csc3c1CCCC3)C2 16.7%
C[C@@H]1CC(=O)NN=C1c1ccc(NN=C(C#N)C#N)cc1 4.39%
COc1c(C=O)c(=O)[nH]c2c(OC)cccc12 29.4%
COc1ccc(-c2nc(C(=O)N3CCN(C)CC3)sc2-c2ccc(OC)cc2)cc1 -28.9%
CC(=O)Nc1ccc(SC[C@H](Cc2ccccc2)N2CC[C@@H](N)CCC2=O)cc1 -24.2%
CC(=O)OCC(=O)[C@@]1(O)CCC2C3CCC4=CC(=O)CC[C@]4(C)C3C(O)C[C@]21C (stereo partly specified) -1.37%
Cc1nc2ccccc2nc1CN1CCOc2ccc(CN3CCc4sccc4C3)cc2C1 9.48%
CS(=O)(=O)Nc1cccc(-c2nc(NC3CC3)c3ccccc3n2)c1 4.65%
CCCCCCCCC#CCC#CCC#CCCCC(=O)O 19.7% [at 15.3 µM]
O=c1cc(-c2cc(O)c(O)c(O)c2)oc2cc(O)cc(O)c12 -20%
Cc1c(C(=O)NCC2(c3ccccc3)CCOCC2)cnn1-c1nccc(-c2ccco2)n1 19.3%
Cc1noc(C)c1C(=O)N1CCC2(CCN(Cc3nccs3)CC2)CC1 16.3%
CN1CCN(CCCN2c3ccccc3Sc3ccc(S(=O)(=O)N(C)C)cc32)CC1 29.1% [at 75.8 µM]
CCCC[P+](CCCC)(CCCC)Cc1ccc(NC(=O)[C@@H](Cc2ccc3ccccc3c2)NC(=NC2CCCCC2)NC2CCCCC2)cc1 -1.67%
COCc1ccc(CN2CCOc3ccc(C4=CCCCC4)cc3C2)o1 12.9%
CNc1ncncc1-c1c(C)noc1C 2.93%
N[C@H](C(=O)O)C1[C@H](C(=O)O)[C@H]1C(=O)O (stereo partly specified) -3.28%
O=c1[nH]cc(F)c(=O)[nH]1
O=C(O)c1cc(=O)c2cccc(O)c2[nH]1
CCOc1cc(NC(C)=O)ccc1C(=O)OC 11.1%
COc1ccc(CNc2nc(-c3cccnc3)nc3ccccc23)c(OC)c1 -10.7%
Cc1c(C(=O)NCC2(N3CCOCC3)CCCCCC2)cnn1-c1nccc(-c2ccccc2F)n1 -14.3%
C[C@]12C=CC(=O)C=C1CC[C@@H]1[C@@H]2[C@@H](O)C[C@@]2(C)[C@H]1CC[C@]2(O)C(=O)CO 21.6%
COc1cccc(CN2C(=O)NC(C)(C3CCN(Cc4ccc(C)o4)CC3)C2=O)c1OC (stereo unspecified) 8.57%
CC(C)Cc1ccc([C@H](C)C(=O)O)cc1
COCC(=O)Nc1cc(C(=O)N2CCCC2c2nccs2)c2c(c1)nc(-c1ccncc1)n2C (stereo unspecified) 8.33%
COc1cccc(-c2cncnc2Nc2ccc(F)cc2)c1 11.6%
CS(=O)(=O)NCc1ccccc1Br -9.38%
CS(=O)(=O)c1ccc([C@@H](O)[C@@H](CO)NC(=O)C(Cl)Cl)cc1 7.5% [at 75.8 µM]
O=C1CC[C@H](C(=O)O)N1 -9.06%
COc1ccc(CCN(C)Cc2cc(-c3cncnc3)ccc2O)cc1OC 5.29%
COc1ccc(-n2c(=O)c(C)nc3cnc(OC)nc32)cc1 19%
COC(=O)C[C@H]1c2cc(F)cc(F)c2S(=O)(=O)N1C1CCN(Cc2ccccc2)CC1 0.282%
O=C(c1ccco1)N1CCC2(CCCN(C(c3ccccc3)c3ccccc3)C2)CC1 11.6%
O=c1c(-c2cc(F)cc(F)c2)nc2cnc(N3CCOCC3)nc2n1CCc1ccccc1 1.31%
COCCn1c(=O)c(C)nc2cnc(Nc3cccc(OC)c3)nc21 11.5%
CC(=O)Oc1cc(C(F)(F)F)ccc1C(=O)O 9.56% [at 75.8 µM]
N=c1ccn2c(n1)O[C@H]1[C@H](O)[C@@H](CO)O[C@H]12
CCCCCCCCCCCCCCCCCC(=O)OC[C@@H](O)[C@H]1OC[C@H](O)[C@H]1O 3.48%
CC(=O)Oc1c(C)cccc1C(=O)O 11.5%
CN(C)c1nc(-c2ccc3c(c2)OCO3)nc2ccccc12 -7.17%
CCCCCCCC/C=C\CCCCCCCC(=O)NCc1ccc(O)c(OC)c1 -12% [at 75.8 µM]
COc1ccc(C(=O)N2CCC[C@@]3(CCN(Cc4nccs4)C3)C2)cc1 19.8%
CCN(Cc1ccncc1)Cc1ccc2c(c1)CN(C(=O)c1ccccc1-n1cccn1)CCO2 5.38%
O=C1NC(=O)/C(=C/c2ccc(-c3ccc(F)cc3O)o2)S1 -7.07% [at 75.8 µM]
Nc1ncnc2c1ncn2C1OC(CO)C(O)C1O (stereo unspecified)
O=C(Nc1ccccc1)N1CCC2(CC1)CCN(C(=O)c1cccc(F)c1)CC2 11.7%
CC(C)c1ccc2c(c1)CCC1C(C)(C(N)=O)CCCC21C (stereo unspecified) -20%
CCCn1c(=O)c2[nH]c(-c3ccccc3)nc2n(CCC)c1=O
COc1ccccc1N(C)C 8.72%
O=c1c(-c2cccc(F)c2)nc2cncnc2n1-c1ccccc1 13.2%
COc1ccccc1N1CCN(c2nc(CNC(=O)c3ccccc3F)nc3ccccc23)CC1 13.9%
CCCCCCCCCCCCCCCCCC(=O)O -10.7%
CCCCC(=O)OCC(=O)[C@]1(O)Cc2c(O)c3c(c(O)c2[C@@H](O[C@H]2C[C@H](NC(=O)C(F)(F)F)[C@H](O)[C@H](C)O2)C1)C(=O)c1c(OC)cccc1C3=O -16.9%
N#Cc1ccc(CN2CC[C@@]3(CCCN(S(=O)(=O)c4ccccc4)C3)C2)cc1 2.27%
CCC(=O)OC(OP(=O)(CCCCc1ccccc1)CC(=O)N1C[C@H](C2CCCCC2)C[C@H]1C(=O)O)C(C)C (stereo partly specified) -1.26%
Clc1ccc2c(c1)N=C(N1CCNCC1)c1ccccc1N2
Cc1cc(N(C)C)c(C)cc1/C=C/c1ccnc2ccccc12 42.8%
CC(=O)OC/C=C(C)/C=C/C=C(C)/C=C/C1=C(C)CCCC1(C)C
O=C(c1cccc(F)c1F)N1CCOc2ccc(CN3CCN(Cc4ccccn4)CC3)cc2C1 8.62%
Cn1c(C2CCC2)nc2cc(C(=O)N3CCOc4ccccc4C3)cc(NC(=O)C3CCCO3)c21 (stereo unspecified) 2.61%
O=C(c1ccc2c(c1)OCO2)N(Cc1cc2ccc(F)cc2nc1N1CCC(O)CC1)CC1CCCO1 (stereo unspecified) 2.55%
O=C(Nc1ccccc1)[C@@H]1CC=C[C@@H]2CCN(C3CC3)C(=O)[C@@H]21 5.95%
